Assay results: the supplement of paper PMC11417369
± gives the standard deviation of the averaged measurements. The list shows a part of the results.

test system: PfAP2-I AP2 domain 3 (GST-tagged); assay: gcPBM binding intensity (ln(normalized median fluorescence intensity)); higher = stronger DNA binding
Method in brief: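 Binding intensity is the highest Masliner-normalised natural-log median intensity over replicate spots in either probe orientation. To obtain it, GST-tagged P. falciparum DNA-binding domains made in E. coli were incubated for 1 h on an Agilent 4 × 180k array of primer-extended double-stranded 36-bp intergenic genomic probes plus negative controls. Detection used Alexa488 anti-GST antibody with scanning at 488 nm.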

Row | Sequence | gcPBM binding intensity (ln)
1 | TACTTATTTTTATAGCATTTCACGGAGGTAGTAATA [CACACA_negctrl_site468] | 7.79 ± 0.47
2 | ATAATAAATCATCATATTACATTTATCTTTGTTGGA [CACACA_negctrl_site849] | 7.54 ± 0.69
3 | AACTGTAATTTTATACGTACATAAATAATATTATAT [XGTACX_site4277] | 8.17 ± 0.14
4 | TTTGCAACATATAAAAGTACAAATAATATATTTATT [XGTACX_site890] | 7.75 ± 0.38
5 | TTTATTATATGCACACGTACATATAATATATATATA [XGTACX_site4108] | 9.54 ± 0.52
6 | ATCGGTATATTATTACATGAATAAACTTACACACAC [TGCATGCA_negctrl_site21] | 8.98 ± 0.4
7 | TTGTATTAATAATTTTTTATATTATAGTTTATAATA [GTGCAC_negctrl_site130] | 7.73 ± 0.35
8 | TATATATATAACATTGTACACACAAAGAAATAATAT [CACACA_site8998] | 8.74 ± 0.39
9 | TATATATAAAATGTATGTACATATTTATTTATATAG [XGTACX_site657] | 7.56 ± 0.2
10 | AAGTGAAATAAAATATGTACATATATGTATATATAA [XGTACX_site4473] | 7.75 ± 0.42
11 | TTTTTTCTTCGTGTATTAAGTCACAATAGGAAAAAA [GTGCAC_negctrl_site644] | 8.39 ± 0.4
12 | AAAAAAAAAGAATGTGAACACACACCGTGAATATAA [CACACA_site8342] | 7.62 ± 0.71
13 | TGTATTTATAGACACACACACTTTCTTTTTTTAAGA [CACACA_site7010] | 8.06 ± 0.14
14 | AACAATTAGAACTTTGCACACTTCTATATATTTTGT [CACACA_site674] | 9.48 ± 0.6
15 | TGTATAATAAGGAAGAGTACAAGTAAATACACACAT [XGTACX_site2084] | 8.49 ± 0.61
16 | TACATATATAAAAAAACACACACATATATATATATA [CACACA_site8315] | 9.22 ± 0.27
17 | TTTCTAAGAAAAAAAAAAAAAAAAAAAAAGATACAA [GTGCAC_negctrl_site525] | 7.36 ± 0.66
18 | ATATTTATTTTAATTTTTCTATATAAACTATTATGA [CACACA_negctrl_site739] | 7.54 ± 0.63
19 | AGGAAGGAAATAAATCAACACACATATATTATATAT [CACACA_site8678] | 7.67 ± 0.61
20 | TATATATATTATATATGTACATATTGTATATTTTTG [XGTACX_site4564] | 8.21 ± 0.39
21 | TATGTAAAATGTGTTTGTACTTATTTATTATATAAA [XGTACX_site2816] | 7.75 ± 0.078
22 | ATTATAAATATCAGTGCACACATTTCTACGCAAAGT [CACACA_site4420] | 10.7 ± 0.4

Row | Sequence | gcPBM binding intensity (ln)
23 | AAGGAGCCTATGAACACACACATGTACAGATATTAA [CACACA_site6107] | 7.79 ± 0.64
24 | CAAAATTATCAGAATCGTACATTTTTAACATATAAT [XGTACX_site7909] | 7.4 ± 0.49
25 | AAAACTATATTAATGTGTACACATCAAAATATTAAT [XGTACX_site6767] | 8.12
26 | TTACAAAACACTTATACACACATATATATATATATA [CACACA_site2716] | 9.23 ± 0.31
27 | TAATATATTAAAAATAGTACATAAGAAAAATAAGTA [XGTACX_site7957] | 8.11 ± 0.52
28 | ACAGGAAAAAACAATTGTACATGTATATATATATAT [XGTACX_site7677] | 9.34 ± 0.16
29 | ATATATATATATATATGTACATATTTTATTTGAAAT [XGTACX_site7411] | 9.38 ± 0.4
30 | GCATAATATACTCTTACACACCATTTCTAAATACAT [CACACA_site4912] | 8.24 ± 0.53
31 | AAGACAATATATGCAGTGCATATACATACATATATA | 9.81 ± 0.071
32 | AAAAAAAAAAAAAAAAGTACGTATTTTTTTTAAAAT [XGTACX_site2654] | 8.85 ± 0.47
33 | TTTTTTTTTTTTTTTTGTACGTAAAAAAATATATAC [XGTACX_site1290] | 8.31 ± 0.37
34 | TTGTTATATTACAGTAGTACATTTAAAATCTACTAC [XGTACX_site2620] | 7.73 ± 0.48
35 | ATTTTTATTTACAACCCCAAAAAGGAAAAACATAAA [CACACA_negctrl_site1169] | 7.87 ± 0.45
36 | AATATTTATACTATAACACACATACAGACAAAAAAA [CACACA_site6396] | 8.06 ± 0.49
37 | TTACATTATATACATACACACCCACCCACAAAAAAA [CACACA_site8187] | 9.55 ± 0.61
38 | ATAATATCATCAAACGCACACATACATAAATATATT [CACACA_site5230] | 8.46 ± 0.32
39 | TATTTTTATAATATATGTACATATATATATATATTA [XGTACX_site5343] | 7.8 ± 0.21
40 | ACATATTATATGAATACACACAAAAACTTATCGGTA [CACACA_site3439] | 7.63 ± 0.53
41 | TATTTACATTTATGTGCACACATTCCATTTGAAAGT [CACACA_site1954] | 9.935 ± 0.021
42 | CGGACATACATAGGAACATGCAAAATTTTTTATTTT [TGCATGCA_site575] | 7.62 ± 0.61
43 | AATAGAAAAAAAAAATGTACACATATAAAAGCATAT [XGTACX_site6306] | 7.93 ± 0.78
44 | TATTTTCTTTTTCTTGTACACACATAATATGGATGA [CACACA_site8168] | 8.15 ± 0.45

Row | Sequence | gcPBM binding intensity (ln)
45 | TTGAAAATGAAAAAATGTACTTAAAAAAAAGGAACA [XGTACX_site8664] | 7.87 ± 0.51
46 | TCTTTGAATTTTTTAACACACACATGGGTGGATATA [CACACA_site8474] | 7.92 ± 0.49
47 | ATAAAATTGTATAACTGTACATATATATATATATAT [XGTACX_site5596] | 9.43 ± 0.53
48 | CCCACAAAGGAATATACACACATATATATATATATA [CACACA_site4091] | 9.4 ± 0.5
49 | TAAATATTTTTTTAGACACACATATATCTATGATAT [CACACA_site1107] | 7.38 ± 0.49
50 | AAAAAAATAATTTGTAGTACGATTCAATGAAAAGGC [XGTACX_site1287] | 8.14 ± 0.64
51 | ATACATATATACATATGTACATATATATATATATAT [XGTACX_site8206] | 9.15 ± 0.34
52 | TTTTTTCTTAAAGACATATATTTATTTGGTAAAACA [XGTACX_negctrl_site243] | 7.5 ± 0.64
53 | GGATATAACAGACACACACACACATATAAATATATT [CACACA_site7866] | 7.97 ± 0.55
54 | ATGCTATATTAAAAACGTACAAACTGTTTAGAAAAA [XGTACX_site8943] | 8.04 ± 0.2
55 | CAAAATAAAAATTAATGTACATAAAAAATGAATATA [XGTACX_site1085] | 7.88 ± 0.59
56 | TATTTGTTTTTATATAGTACATAAATATATATATAT [XGTACX_site7834] | 8.935 ± 0.021
57 | AAAATAAATATGAACACACACATTTATGCCTTTAAA [CACACA_site1271] | 7.62 ± 0.59
58 | AAAAAATAAATAAATACACACACACTAATATATATA [CACACA_site8488] | 8.39 ± 0.57
59 | AGAGATATAAGAAAAGCACACACACCCAAAAAAAAA [CACACA_site8917] | 8.53 ± 0.41
60 | TATATACAAAAAATATGTACATATATATATATATAT [XGTACX_site3497] | 9.36 ± 0.44
61 | TATATTATTTATTTTTGTACATATTATGAATGAATA [XGTACX_site3971] | 7.73 ± 0.33
62 | CTTCCTTCTAAATGCACACGGAAAGTATAAATGTAT [CACACA_site2501] | 9.23 ± 0.27
63 | TTACCTTTAAATGGATGTACAGAAATTTAAATTGTT [XGTACX_site7044] | 7.7 ± 0.46
64 | AAATAATTAGAAATAGTGCACATAATTAAGGGATAC | 11.5 ± 0.31
65 | TAGAAATATATAAATTGTACATGTTTGTATAATATA [XGTACX_site2097] | 7.84 ± 0.15
66 | TATATTATTTATTAGACACACATTATTAATATATTT [CACACA_site1078] | 7.75 ± 0.19

Row | Sequence | gcPBM binding intensity (ln)
67 | TGGATTTTGTATTAATGTACATATATATATATATAT [XGTACX_site4442] | 9.45 ± 0.45
68 | CAGATAGACTTATATGCATGCATTCACATACCAACA [TGCATGCA_site163] | 8.23 ± 0.66
69 | AACAACATTTTGTAATGTACATATTTACTTATATTC [XGTACX_site7251] | 7.65 ± 0.45
70 | CCTCTTAATATGTGCACACTAAATTATAACATAATT [CACACA_site3259] | 10.48 ± 0.014
71 | TGAAAAGTAAAATACACACACATAATCTAATTTATA [CACACA_site7024] | 7.56 ± 0.34
72 | GGTTAACATAAATATATACACACCAATGATGGCATT [CACACA_site1568] | 7.82 ± 0.57
73 | AAATATAAACTCAGCACACAAACATATATATGTCAT [CACACA_site4004] | 7.79 ± 0.59
74 | TTCTAATATTTACATAATATATAGAAATATAAAGGT [XGTACX_negctrl_site504] | 7.8 ± 0.47
75 | GTAGACATTATAATGGTGCAAAAAAATTAACAAAAA [GTGCAC_site9891] | 10.9 ± 0.3
76 | ATGGTATAAAAAAATACACACTTATATATATTCTTA [CACACA_site4427] | 7.66 ± 0.38
77 | TTTTTTTTTTTTTCTCGTACAAAATAATACCTTTTT [XGTACX_site3867] | 8.01 ± 0.54
78 | AGGGAATATTTTTATGCATGTGCTTACACATTACAA [TGCATGCA_site830] | 8.12 ± 0.86
79 | AAAAAAAACGGACACACACACATACAAAATATATAT [CACACA_site4910] | 8.11 ± 0.49
80 | TAAAATTTTGTTTGTTGTACTTATTTTCGTGTCAAC [XGTACX_site8277] | 8.03 ± 0.25
81 | AAAGATGAATTTTTTACACACACCATTTTATAATAT [CACACA_site3676] | 7.96 ± 0.61
82 | AAAAAAAAAAAAAAAAAAAAATATATATATATATAT [GTGCAC_negctrl_site426] | 9.75 ± 0.2
83 | AAAAGTATAATAAATTGTACTAACAAATATTTATGT [XGTACX_site7721] | 7.54 ± 0.47
84 | TACTTATCGTTAAATTGTACTAAAAAATATTTTTCT [XGTACX_site4665] | 7.67 ± 0.57
85 | AATGTAAAACCTCCTACACACACCAATTAACTATTC [CACACA_site2112] | 7.99 ± 0.44
86 | GCCATTGTACCATCCACACACATATATATCTGTATA [CACACA_site5490] | 8.54 ± 0.7
87 | TTATAATAAAAGGCTTTACAATTATTAAACAAATAA [GTGCAC_negctrl_site480] | 7.46 ± 0.57
88 | AAAAAAGAAGAGCACACACACATATATAAATATAAA [CACACA_site631] | 8.135 ± 0.078
